Test results from patent US10329277B2, “N-(2-((2-(dimethylamino)ethyl)(methyl)amino)-4-methoxy-5-((4-(3-methyl-2-OXO-2,3-dihydro-1h-benzo[d]imidazol-1-yl)pyrimidin-2-yl)amino)phenyl)acrylamide hydrochloride as an inhibitor of epidermal growth factor receptor activity” (CHIA TAI TIANQING PHARMACEUTICAL GROUP CO., LTD., priority 2015, dated 2019).
Structures can show the parent of a compound that is named as a salt.

Columns and labels:
EGFR-L858R/T790M(DM) [1] = target: T1, EGFR-L858R/T790M(DM) (Homo sapiens, UniProt P00533, L858R/T790M); details: ratio of enzymatic IC50 EGFR(WT) to EGFR-L858R/T790M(DM)
EGFR-L858R/T790M(DM) [2] = target: T1, EGFR-L858R/T790M(DM); assay: biochemical

Compound | WT/DM (EGFR-L858R/T790M(DM) [1]) | IC50 (EGFR-L858R/T790M(DM) [2])
C=CC(=O)Nc1cc(Nc2nccc(-n3c(=O)[nH]c4cc(F)ccc43)n2)c(OC)cc1N(C)CCN(C)C [Example 11, N-(2-((2-(dimethylamino)ethyl)(methyl)amino)-5-(4-(5-fluoro-2-oxo-2,3-dihydrobenzo[d]imidazol-1-yl)pyrimidin-2-ylamino)-4-methoxyphenyl)acrylamide Hydrochloride] | 4.2 | 0.67 nM
C=CC(=O)Nc1cc(Nc2nccc(-n3c(=O)n(C)c4ccccc43)n2)c(OC)cc1N(C)CCN(C)C [Example 1, N-(2-((2-(dimethylamino)ethyl)(methyl)amino)-4-methoxy-5-(4-(3-methyl-2-oxo-2,3-dihydro-1H-benzo[d]imidazol-1-yl)pyrimidin-2-ylamino)phenyl)acrylamide Hydrochloride] | 12.6 | 0.72 nM
C=CC(=O)Nc1cc(Nc2nccc(-n3c(=O)n(C)c4cc(F)ccc43)n2)c(OC)cc1N(C)CCN(C)C [Example 10, N-(2-((2-(dimethylamino)ethyl)(methyl)amino)-5-(4-(5-fluoro-3-methyl-2-oxo-2,3-dihydrobenzo[d]imidazol-1-yl)pyrimidin-2-ylamino)-4-methoxyphenyl) acrylamide Hydrochloride] | 18.4 | 0.58 nM
C=CC(=O)Nc1cc(Nc2nccc(-n3c(=O)n(C)c4ccccc43)n2)c(OC)cc1N(C)CCNC [Example 12, N-(4-methoxy-2-(methyl(2-(methylamino)ethyl)amino)-5-(4-(3-methyl-2-oxo-2,3-dihydrobenzo[d]imidazol-1-yl)pyrimidin-2-ylamino)phenyl)acrylamide Hydrochloride] | 10.5 | 0.5 nM
C=CC(=O)Nc1cc(Nc2ncc(Cl)c(-n3c(=O)[nH]c4ccccc43)n2)c(OC)cc1N(C)CCN(C)C [Example 4, N-(5-(5-chloro-4-(2-oxo-2,3-dihydro-1H-benzo[d]imidazol-1-yl)pyrimidin-2-ylamino)-2-((2-(dimethylamino)ethyl)(methyl)amino)-4-methoxyphenyl) acrylamide Hydrochloride] | 17.9 | 1.15 nM
C=CC(=O)Nc1cc(Nc2nccc(-n3c(=O)[nH]c4ccccc43)n2)c(OC)cc1N(C)CCN(C)C [Example 2, N-(2-((2-(dimethylamino)ethyl)(methyl)amino)-4-methoxy-5-(4-(2-oxo-2,3-dihydrobenzo[d]imidazol-1-yl)pyrimidin-2-ylamino)phenyl)acrylamide Hydrochloride] | 6.0 | 0.43 nM
C=CC(=O)Nc1cc(Nc2ncc(Cl)c(-n3c(=O)n(C)c4ccccc43)n2)c(OC)cc1N(C)CCN(C)C [Example 3, N-(5-(5-chloro-4-(3-methyl-2-oxo-2,3-dihydro-1H-benzo[d]imidazol-1-yl)pyrimidin-2-ylamino)-2-((2-(dimethylamino)ethyl)(methyl)amino)-4-methoxyphenyl) acrylamide Hydrochloride] | 42.6 | 4.61 nM
C=CC(=O)Nc1cc(Nc2nccc(-n3c(=O)oc4ccccc43)n2)c(OC)cc1N(C)CCN(C)C [Example 5, N-(2-((2-(dimethylamino)ethyl)(methyl)amino)-4-methoxy-5-(4-(2-oxobenzo[d]oxazol-3(2H)-yl)pyrimidin-2-ylamino)phenyl) acrylamide Hydrochloride] | 19.8 | 2.27 nM
C=CC(=O)Nc1cc(Nc2nccc(-n3c(=O)[nH]c4cc(C)ccc43)n2)c(OC)cc1N(C)CCN(C)C [Example 9, N-(2-((2-(dimethylamino)ethyl)(methyl)amino)-4-methoxy-5-(4-(5-methyl-2-oxo-2,3-dihydrobenzo[d]imidazol-1-yl)pyrimidin-2-ylamino)phenyl)acrylamide Hydrochloride] | 6.1 | 0.64 nM
COC/C=C/C(=O)Nc1cc(Nc2nccc(-n3c(=O)n(C)c4ccccc43)n2)c(OC)cc1N(C)CCN(C)C [Example 7, (E)-N-(2-((2-(dimethylamino)ethyl)(methyl)amino)-4-methoxy-5-(4-(3-methyl-2-oxo-2,3-dihydro-1H-benzo[d]imidazol-1-yl)pyrimidin-2-ylamino)phenyl)-4-methoxybut-2-enamide] | 39.7 | 4.12 nM
